T1: Human B7-DC/PD-L2/CD273 protein, recombinant (Fc tag) (Sino Biological, H10292-H02H) (human, UniProt Q9BQ51 20-219)
T1 construct: Bought
T1 sequence (looked up): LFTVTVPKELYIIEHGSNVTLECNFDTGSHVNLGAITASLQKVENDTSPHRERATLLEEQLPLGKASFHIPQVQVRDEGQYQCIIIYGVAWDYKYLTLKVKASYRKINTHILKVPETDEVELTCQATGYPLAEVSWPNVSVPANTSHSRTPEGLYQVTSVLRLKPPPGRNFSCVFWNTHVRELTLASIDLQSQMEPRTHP

T2: CD275/ICOS ligand protein, human, recombinant (Fc tag) (Sino Biological, 11559-H02H) (human, UniProt O75144 19-258)
T2 construct: Bought; also called B7H2
T2 sequence (looked up): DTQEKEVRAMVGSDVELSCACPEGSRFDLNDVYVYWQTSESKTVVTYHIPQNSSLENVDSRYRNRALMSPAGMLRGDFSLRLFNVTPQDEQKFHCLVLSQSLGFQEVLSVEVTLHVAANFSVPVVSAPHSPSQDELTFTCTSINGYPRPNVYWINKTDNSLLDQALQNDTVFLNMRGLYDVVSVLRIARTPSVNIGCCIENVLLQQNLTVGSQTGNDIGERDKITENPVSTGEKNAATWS

T3: Recombinant human B7H4 Fc chimera (R&D, 8870-B7-050) (human, UniProt Q7Z7D3 29-258)
T3 construct: Bought
T3 sequence (looked up): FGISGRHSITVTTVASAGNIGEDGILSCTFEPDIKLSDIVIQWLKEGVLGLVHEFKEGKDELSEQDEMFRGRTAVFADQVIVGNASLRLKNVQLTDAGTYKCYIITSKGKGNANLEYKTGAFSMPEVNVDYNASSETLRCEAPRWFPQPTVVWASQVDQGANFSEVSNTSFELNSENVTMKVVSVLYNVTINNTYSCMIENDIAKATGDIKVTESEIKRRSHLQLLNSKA

T4: B7-H3/CD276 protein, human, recombinant (ECD, Fc tag) (Sino Biological, 11188-H02H) (human, UniProt Q5ZPR3 29-466)
T4 construct: extracellular domain; Bought
T4 sequence (looked up): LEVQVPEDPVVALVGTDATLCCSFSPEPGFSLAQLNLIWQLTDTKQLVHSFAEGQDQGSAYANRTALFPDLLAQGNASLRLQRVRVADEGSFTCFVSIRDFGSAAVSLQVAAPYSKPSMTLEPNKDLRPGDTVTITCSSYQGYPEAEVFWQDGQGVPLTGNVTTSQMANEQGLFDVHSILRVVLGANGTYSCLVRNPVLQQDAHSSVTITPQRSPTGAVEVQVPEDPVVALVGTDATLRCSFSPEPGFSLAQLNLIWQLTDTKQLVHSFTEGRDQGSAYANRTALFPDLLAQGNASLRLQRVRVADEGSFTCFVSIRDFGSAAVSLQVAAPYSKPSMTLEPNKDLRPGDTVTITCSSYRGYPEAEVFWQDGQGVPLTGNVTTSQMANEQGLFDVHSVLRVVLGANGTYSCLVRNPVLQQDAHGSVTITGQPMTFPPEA

T5: Human B7-1/CD80 protein, Fc tag (Acro, B71-H5259) (human, UniProt P33681 35-242)
T5 construct: Bought
T5 sequence (looked up): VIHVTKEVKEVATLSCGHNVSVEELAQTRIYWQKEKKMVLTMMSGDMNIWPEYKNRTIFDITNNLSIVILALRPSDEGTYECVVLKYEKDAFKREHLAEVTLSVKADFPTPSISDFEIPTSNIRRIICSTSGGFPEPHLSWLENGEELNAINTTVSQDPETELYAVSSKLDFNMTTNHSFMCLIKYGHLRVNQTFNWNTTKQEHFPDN

T6: B7-H6 /NCR3LG1 protein, human, recombinant (Fc tag) (Sino Biological, 16140-H02H) (human, UniProt Q68D85 25-262)
T6 construct: Bought
T6 sequence (looked up): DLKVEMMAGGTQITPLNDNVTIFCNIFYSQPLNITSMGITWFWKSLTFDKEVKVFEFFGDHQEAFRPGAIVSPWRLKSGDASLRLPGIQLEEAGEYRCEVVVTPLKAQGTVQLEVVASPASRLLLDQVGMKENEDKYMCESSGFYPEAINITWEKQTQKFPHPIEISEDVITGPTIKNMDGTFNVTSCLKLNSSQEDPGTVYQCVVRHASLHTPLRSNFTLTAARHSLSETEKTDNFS


Columns and labels:
Assay in all cases: ELISA on coated B7 family protein
[1] = target: T7, Recombinant human VISTA/B7H5/PD-1H Fc chimera (R&D, 7126-B7-050) (human, UniProt Q9H7M9 33-194)
T7 construct: Bought
Description: (§1) B7 family proteins (see Table 7 for details) were respectively diluted to […] with PBS, added into a 96-well plate (Corning, #9018) at 100 μl/well, and incubated at 4° C. overnight. After the liquid was discarded, the plate was washed 3 times with a PBST buffer (pH 7.4, containing 0.05% tween-20), 250 μl of blocking solution containing 2% BSA was added, and the plate was incubated for 1 hour at 37° C. The blocking solution was discarded, the plate was washed 3 times with PBST buffer (pH 7.4, containing 0.05% Tween-20), the antigen-binding protein to be tested was diluted to 2 concentrations of 10 nM and 1 nM, 100 μl of the diluted antigen-binding protein was added to each well, and the plate was incubated for 1 hour at 37° C., with the isotype antibody as the control. After the plate was washed 3 times with PBST buffer (pH 7.4, containing 0.05% Tween-20), goat anti-human HRP secondary antibody (Invitrogen, #A18805) diluted 5000 times was added, and the plate was incubated at 37° C. for 1 hour in the dark. After the plate was washed 3 times with PBST buffer (pH 7.4, containing 0.05% tween-20), TMB (Biopanda, #TMB-S-003) was added at 100 μl/well, and the plate was placed at room temperature for about 30 minutes in the dark; and a stop solution (BBI life sciences, #E661006-0200) was added to each well at 50 μl/well to stop the reaction, and the absorbance at 450 nm (OD450) was determined in a microplate reader (PerkinElemer, #Enspire).

[2] = target: T1, Human B7-DC/PD-L2/CD273 protein, …
Description: as §1

[3] = target: T2, CD275/ICOS ligand protein, human, …
Description: as §1

[4] = target: T3, Recombinant human B7H4 Fc chimera (R&D, …)
Description: as §1

[5] = target: T4, B7-H3/CD276 protein, human, recombinant …
Description: as §1

[6] = target: T5, Human B7-1/CD80 protein, Fc tag (Acro, …)
Description: as §1

[7] = target: T8, Human PD-L1/B7-H1 protein, His tag (Acro, PD1-H5229) (human, UniProt Q9NZQ7 fragment)
T8 construct: Bought
T8 sequence (Q9NZQ7 19-238 limits assumed): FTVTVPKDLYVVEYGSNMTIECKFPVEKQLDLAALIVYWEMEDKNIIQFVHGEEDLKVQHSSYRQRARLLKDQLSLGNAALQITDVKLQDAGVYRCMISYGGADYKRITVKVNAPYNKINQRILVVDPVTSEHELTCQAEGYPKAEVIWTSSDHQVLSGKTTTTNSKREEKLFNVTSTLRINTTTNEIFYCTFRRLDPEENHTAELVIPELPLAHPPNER
Description: as §1

[8] = target: T6, B7-H6 /NCR3LG1 protein, human, …
Description: as §1

Row | binding result [1] | binding result [2] | binding result [3] | binding result [4] | binding result [5] | binding result [6] | binding result [7] | binding result [8] | Binder
1 | no binding (tested: 10 nM) | no binding (tested: 10 nM) | no binding (tested: 10 nM) | no binding (tested: 10 nM) | no binding (tested: 10 nM) | no binding (tested: 10 nM) | no binding (tested: 10 nM) | no binding (tested: 10 nM) | PR004261 (antibody, human IgG1, kappa, Variant of PR003249; Human IgG1 with LALA mutation in Fc) heavy: QVQLVESGGGVVQPGRSLRLSCAASGFTFSDYGIHWVRQAPGKGLEWVAVIWYDGSDKYYADSVRGRFTISRDNSKNTLSLQMNSLRVEDTAVYYCARDRSSGAMGYFVYWGQGTLVTVSSASTKGPSVFPLAPSSKSTSGGTAALGCLVKDYFPEPVTVSWNSGALTSGVHTFPAVLQSSGLYSLSSVVTVPSSSLGTQTYICNVNHKPSNTKVDKKV[not shown - human IgG1 Fc with changes] light: [not shown - about 100 residues][not shown - about 100 residues]
2 | no binding (tested: 10 nM) | no binding (tested: 10 nM) | no binding (tested: 10 nM) | no binding (tested: 10 nM) | no binding (tested: 10 nM) | no binding (tested: 10 nM) | no binding (tested: 10 nM) | no binding (tested: 10 nM) | PR004262 (antibody, human IgG1, kappa, Variant of PR003259; Human IgG1 with LALA mutation in Fc) heavy: QVQLVESGGGVVQPGRSLRLSCAASGFTFSNYGMHWVRQVPGKGLEWVAVIWYDGSEKDYADSVKGRFTISRDNSKNTLYLQMNSLRVEDTAVYYCAKDLISGIYYVDHWGQGTLVTVSSASTKGPSVFPLAPSSKSTSGGTAALGCLVKDYFPEPVTVSWNSGALTSGVHTFPAVLQSSGLYSLSSVVTVPSSSLGTQTYICNVNHKPSNTKVDKKV[not shown - human IgG1 Fc with changes] light: DIQMTQSPSSLSASVGDRVTITCRASQGISNYLAWYQQKPGKVPKLLIYAASTLQSGVPSRFSGSGSGTDFTLTISSLQPEDVATYYCQKYNSAPFTFGPGTKVDIKRTVAAPSVFIFPPSDEQLKSGTASVVCLLNNFYPREAKVQWKVDNALQSGNSQESVTEQDSKDSTYSLSSTLTLSKADYEKHKVYACEVTHQGLSSPVTKSFNRGEC
